# The BET-seq Pho4 binding data (Le et al. 2018)
# The other results are listed elsewhere or left out. The energies were worked out here from pooled read counts, against the library average; single values are noisy.
# Target: T1, Pho4 (S. cerevisiae) (UniProt P07270)
# T1 sequence: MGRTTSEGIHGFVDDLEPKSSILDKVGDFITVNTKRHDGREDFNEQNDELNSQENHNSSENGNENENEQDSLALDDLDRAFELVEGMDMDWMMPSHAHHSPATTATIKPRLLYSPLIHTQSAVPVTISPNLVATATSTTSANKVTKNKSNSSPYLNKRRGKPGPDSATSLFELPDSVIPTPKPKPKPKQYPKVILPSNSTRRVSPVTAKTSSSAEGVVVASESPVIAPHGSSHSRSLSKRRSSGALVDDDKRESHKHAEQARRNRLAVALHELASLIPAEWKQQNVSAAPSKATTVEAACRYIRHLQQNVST
# Assay: relative binding free energy (BET-seq); higher = weaker binding
# Conditions: reference: library average
row,Sequence,relative binding free energy
1,TGTCTCACGTGAGATG,0.36 kcal/mol
2,GTCCGCACGTGGGGGG,-0.19 kcal/mol
3,CGAGTCACGTGAGAGG,0.17 kcal/mol
4,TTATGCACGTGATGTT,0.04 kcal/mol
5,AGATTCACGTGCTTTT,0.17 kcal/mol
6,ATGGGCACGTGCAGGC,-0.17 kcal/mol
7,TACAGCACGTGCGTGG,-0.04 kcal/mol
8,GACGGCACGTGTTATT,0.06 kcal/mol
9,CGCGTCACGTGAGGGT,0.07 kcal/mol
10,CTCTGCACGTGTTAGG,-0.03 kcal/mol
11,TATTTCACGTGGGTTC,0.24 kcal/mol
12,GCTTTCACGTGTGTGC,0.32 kcal/mol
13,TGCATCACGTGTGCGG,0.01 kcal/mol
14,GGGCACACGTGTATTG,0.07 kcal/mol
15,CTGGACACGTGGGGTT,-0.1 kcal/mol
16,ATTTGCACGTGGTATA,-0.08 kcal/mol
17,CTAAGCACGTGTGTCG,-0.01 kcal/mol
18,AAGTTCACGTGGAGTA,0.29 kcal/mol
19,GCAGGCACGTGGTTTT,-0.14 kcal/mol
20,AAATGCACGTGAAGTG,0.28 kcal/mol
21,TTGTTCACGTGAGTAG,0.44 kcal/mol
22,ATTAACACGTGGTTGT,-0.18 kcal/mol
23,TGTCGCACGTGTGCTG,-0.06 kcal/mol
24,GTAGTCACGTGAGGAG,0.27 kcal/mol
25,TCGGTCACGTGGAAAT,0.36 kcal/mol

row,Sequence,relative binding free energy
1,TGAAACACGTGAGTGA,0.31 kcal/mol
2,TGAAGCACGTGTGCGT,-0.14 kcal/mol
3,GTTGTCACGTGGTATT,0.12 kcal/mol
4,TGTTTCACGTGCTAAT,0.11 kcal/mol
5,ATGGCCACGTGTTTGT,-0.09 kcal/mol
6,TGTAGCACGTGTGTGG,-0.07 kcal/mol
7,ATAGGCACGTGCGGTG,-0.16 kcal/mol
8,GGCGTCACGTGTGCGT,-0.03 kcal/mol
9,TGTAACACGTGGGGTC,-0.13 kcal/mol
10,ATTGGCACGTGAGTAC,0.14 kcal/mol
11,TTTTTCACGTGTATGG,0.35 kcal/mol
12,ATTAACACGTGCTGGG,0.16 kcal/mol
13,GTAATCACGTGACGGG,0.25 kcal/mol
14,TTTGCCACGTGGATTA,0.09 kcal/mol
15,TGAATCACGTGGTGGA,0.15 kcal/mol
16,GTTAACACGTGTGGCA,-0.06 kcal/mol
17,ACTTTCACGTGAGTTT,0.31 kcal/mol
18,GGTGTCACGTGGGTTG,0.02 kcal/mol
19,GTCCGCACGTGTGAGG,-0.04 kcal/mol
20,TTTCACACGTGGATTG,-0.05 kcal/mol
21,GTGTTCACGTGGGACA,0.03 kcal/mol
22,TATCACACGTGGTTTG,-0.14 kcal/mol
23,AGAAACACGTGGGTGT,-0.12 kcal/mol
24,ATGGCCACGTGGTTAT,0 kcal/mol
25,GGTTGCACGTGGTGTG,0.01 kcal/mol

row,Sequence,relative binding free energy
1,GGCATCACGTGATGGT,0.29 kcal/mol
2,ATGTACACGTGATGAG,0.13 kcal/mol
3,TGATTCACGTGTAGAT,0.24 kcal/mol
4,TAGGTCACGTGCTTTA,0.01 kcal/mol
5,ATGTCCACGTGGGGAT,0.02 kcal/mol
6,TATCTCACGTGATGAT,0.3 kcal/mol
7,ATGCACACGTGATGGG,0.03 kcal/mol
8,AGGGACACGTGGGCTG,-0.13 kcal/mol
9,CTCGGCACGTGTGTTT,-0.12 kcal/mol
10,AGTTTCACGTGCGGTA,0.2 kcal/mol
11,CACAGCACGTGGGTGG,-0.14 kcal/mol
12,ATCGGCACGTGTAGTA,-0.11 kcal/mol
13,CAATGCACGTGGGGGA,-0.14 kcal/mol
14,TCGTGCACGTGTTAAT,-0.02 kcal/mol
15,ATTGGCACGTGGGCCA,-0.15 kcal/mol
16,GGGTGCACGTGTGAAA,0.12 kcal/mol
17,AGTGCCACGTGGTTGT,-0.2 kcal/mol
18,AAGGGCACGTGCGGGA,-0.22 kcal/mol
19,GTGTGCACGTGAGTCT,0.14 kcal/mol
20,CTCGTCACGTGTGGAT,0.18 kcal/mol
21,GGTTCCACGTGATATT,0.24 kcal/mol
22,AGTCGCACGTGGGTGC,-0.28 kcal/mol
23,CTGGTCACGTGTTGTG,0.07 kcal/mol
